Measurements: the supplement of paper PMC6531468
This is one part of the list. These are enrichments in a pooled selection; single values are uncertain. Scores sum up all selected molecules that hold the word; the word was not tested alone.

The sequences below were run on IMP3 RRM1-2 (assay: 6-mer SELEX enrichment z-score vs GST control; IMP3 is the RNA-binding protein IGF2BP3; higher = more enriched by binding). Details: construct: RRM1-2 (1-163); SELEX round: R2.
Protocol: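 SELEX-seq with GST-tagged IMP3 RRM1-2 (Met1-Asn163) and an N40 RNA pool, round 2. 6-mer enrichment z-score normalised to GST SELEX. RNA written as DNA (T = U).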

Chain of IMP3 RRM1-2 (chain, as listed by the source): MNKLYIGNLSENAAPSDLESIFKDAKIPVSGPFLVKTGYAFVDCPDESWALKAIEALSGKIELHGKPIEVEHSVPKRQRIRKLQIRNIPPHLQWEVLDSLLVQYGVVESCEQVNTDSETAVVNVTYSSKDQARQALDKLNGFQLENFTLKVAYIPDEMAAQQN

Row | Sequence | 6-mer SELEX enrichment z-score
1 | GTAAAT | -0.646
2 | CGTCGT | 0.372
3 | GCCCCA | -0.679
4 | TGACCA | -0.369
5 | CTGGAC | -0.496
6 | ACAAGC | 0.558
7 | TGTTGA | -0.1
8 | CCAATC | 0.987
9 | GATAAT | -0.603
10 | CCGCTT | -0.076
11 | AAGTAT | -0.299
12 | ACCGAC | -1.26
13 | TTAGCA | 0.341
14 | GTACAG | 0.001
15 | TGATGG | -0.008
16 | CCGATT | -0.498
17 | AGCCAA | -0.613
18 | ATGTGA | -0.63
19 | ATACGC | -0.199
20 | GGCATT | 0.711

Row | Sequence | 6-mer SELEX enrichment z-score
21 | AAAGGC | -0.719
22 | TGTGTA | 0.016
23 | GAATTA | -0.795
24 | AACGAT | -1.4
25 | TCTGTT | 0.334
26 | GACAAC | -0.171
27 | AGGGTA | 0.13
28 | AGGGCA | 0.271
29 | AGGCAC | 0.883
30 | GGGTAG | 0.308
31 | TCCGTC | 0.285
32 | CGAACA | 0.47
33 | CCTAGT | 0.002
34 | TCTGCC | -0.079
35 | CCAGTT | 0.07
36 | ACGCTA | -0.294
37 | TGCAAA | -0.608
38 | GGCTTC | 0.6
39 | TCTACC | -0.183
40 | TATACA | 0.596
